The RNAGym collection of RNA variant scans (doi:10.1101/gad.245936.114)
Variants at the floor of the assay are shown more often than the library holds them.

B1: tRNA (parent)
chain: CUCUCGGUAGCCAAGUUGGUUUAAGGCGCAAGACUUUAAUUUAUCACUACGAAAUCUUGAGAUCGGGCGUUCGACUCGCCCCCGGGAGAUUUUUUCCUCGAGCAA

Variants of: B1
Assay: nonsense suppression (GFP-seq) (ratio to wild type); higher = more function; SUP4oc tRNA, yeast GFP reporter sort-seq
Summary of the method: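 Yeast were grown in raffinose/galactose medium with 80 mg/L adenine, each strain bearing a genome-integrated ochre-suppressor tRNA variant from a ~3% random-mutation library, a galactose-driven GFP ochre reporter, and RFP. After sorting into GFP/RFP bins, every bin was sequenced on an Illumina platform at phred ≥30. The GFPSEQ value, a measure of nonsense suppression, is the weighted bin median GFP/RFP relative to the unmutated parent tRNA, using each variant's estimated cell share per bin as the weight. Only variants with ≥100 reads and ≥30 cells were included.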

Point of comparison: A62U C75G, nonsense suppression 0.201. Against it:
- G61U A89C — lower, ≤ 0.026
- G61U C64G — lower, ≤ 0.026
- G61U C64U — lower, ≤ 0.026
- G61U C81A — lower, ≤ 0.026
- G61U C82A — lower, ≤ 0.026
- G61U C82U — higher, 0.73
- G61U G65U — lower, ≤ 0.026
- G61U G69C U70A U76G C83A — lower, ≤ 0.026
- G61U G78U — lower, 0.165
- G61U U63C — higher, 0.808
- G61U U63C A74C — lower, ≤ 0.026
- G61U U63G — higher, 0.232
- G61U U70C U71C G88U — lower, ≤ 0.026
- G61U U70G — lower, ≤ 0.026
- G61U U71A G86A — lower, ≤ 0.026
- G61U U76G — lower, ≤ 0.026
- A62C — lower, ≤ 0.026
- A62C A74U — lower, ≤ 0.026
- A62C C64A G85A G88A — lower, ≤ 0.026
- A62C C64G — lower, ≤ 0.026
- A62C C64U G84C — lower, ≤ 0.026
- A62C C75G — lower, ≤ 0.026
- A62C C77A C80U — lower, ≤ 0.026
- A62C C77A G86U — lower, ≤ 0.026
- A62C C77G — lower, ≤ 0.026
- A62C C77U — lower, ≤ 0.026
- A62C C79A — lower, ≤ 0.026
- A62C C79G — lower, ≤ 0.026
- A62C C79G G86U — lower, ≤ 0.026
- A62C C83A — lower, ≤ 0.026
- A62C G65C — lower, ≤ 0.026
- A62C G69C — lower, ≤ 0.026
- A62C G73C U76C G78C — lower, ≤ 0.026
- A62C G73U — lower, ≤ 0.026
- A62C G78A — lower, ≤ 0.026
- A62C G78C — lower, ≤ 0.026
- A62C G78U — lower, ≤ 0.026
- A62C G88U — lower, ≤ 0.026
- A62C U63C — lower, ≤ 0.026
- A62C U63C G88A — lower, ≤ 0.026
- A62C U76C — lower, ≤ 0.026
- A62G — lower, ≤ 0.026
- A62G A74U C77G — lower, ≤ 0.026
- A62G C64U — lower, ≤ 0.026
- A62G C68A — lower, ≤ 0.026
- A62G C72G — lower, ≤ 0.026
- A62G C82G — lower, ≤ 0.026
- A62G G65A G67A C80U C82G — lower, ≤ 0.026
- A62G G65U — lower, ≤ 0.026
- A62G G66C — lower, ≤ 0.026
- A62G G67A G88U — lower, ≤ 0.026
- A62G G67C G73A — lower, ≤ 0.026
- A62G G67U U70G — lower, ≤ 0.026
- A62G G78U — lower, 0.0339
- A62G G84C — lower, ≤ 0.026
- A62G G85A — lower, ≤ 0.026
- A62G G86U — lower, ≤ 0.026
- A62G G86U A89G — lower, ≤ 0.026
- A62G G88U — lower, ≤ 0.026
- A62G U63C — lower, ≤ 0.026
- A62G U63C G66A — lower, ≤ 0.026
- A62G U70A — lower, ≤ 0.026
- A62G U70G — lower, ≤ 0.026
- A62G U71A — lower, ≤ 0.026
- A62G U76G — lower, ≤ 0.026
- A62U — lower, 0.193
- A62U A89C — lower, ≤ 0.026
- A62U C64A — lower, ≤ 0.026
- A62U C64G — lower, ≤ 0.026
- A62U C75A G88U — lower, ≤ 0.026
- A62U G65C — lower, ≤ 0.026
- A62U G65U — lower, ≤ 0.026
- A62U G67A G86C — lower, ≤ 0.026
- A62U G67C — lower, ≤ 0.026
- A62U G67C C79A — lower, ≤ 0.026
- A62U G69C G78U C82A — lower, ≤ 0.026
- A62U G73U A74U — lower, ≤ 0.026
- A62U G85C A89C — lower, ≤ 0.026
- A62U U71C A74C U76C — lower, ≤ 0.026
- A62U U71C C77G — lower, ≤ 0.026
- A62U U76A C82U — lower, ≤ 0.026
- U63A A74C — lower, ≤ 0.026
- U63A C64A — lower, ≤ 0.026
